Laboratory results as given in the supplement of paper PMC3334620.
Over roughly 33,000 sequences, “E-score (-0.5 to 0.5)” has its median near -0.043; the highest 2% begin near 0.37. The list shows a part of the results.

What follows are sequences tested against T1, Upc2 (UniProt Q12151) (assay: PBM E-score (8-mer binding enrichment) (E-score (-0.5 to 0.5)); higher = stronger / more preferred TF binding; most listed sequences are background and not binding sites). Settings: protein concentration: 200 nM; construct: GST-full length.
T1 sequence: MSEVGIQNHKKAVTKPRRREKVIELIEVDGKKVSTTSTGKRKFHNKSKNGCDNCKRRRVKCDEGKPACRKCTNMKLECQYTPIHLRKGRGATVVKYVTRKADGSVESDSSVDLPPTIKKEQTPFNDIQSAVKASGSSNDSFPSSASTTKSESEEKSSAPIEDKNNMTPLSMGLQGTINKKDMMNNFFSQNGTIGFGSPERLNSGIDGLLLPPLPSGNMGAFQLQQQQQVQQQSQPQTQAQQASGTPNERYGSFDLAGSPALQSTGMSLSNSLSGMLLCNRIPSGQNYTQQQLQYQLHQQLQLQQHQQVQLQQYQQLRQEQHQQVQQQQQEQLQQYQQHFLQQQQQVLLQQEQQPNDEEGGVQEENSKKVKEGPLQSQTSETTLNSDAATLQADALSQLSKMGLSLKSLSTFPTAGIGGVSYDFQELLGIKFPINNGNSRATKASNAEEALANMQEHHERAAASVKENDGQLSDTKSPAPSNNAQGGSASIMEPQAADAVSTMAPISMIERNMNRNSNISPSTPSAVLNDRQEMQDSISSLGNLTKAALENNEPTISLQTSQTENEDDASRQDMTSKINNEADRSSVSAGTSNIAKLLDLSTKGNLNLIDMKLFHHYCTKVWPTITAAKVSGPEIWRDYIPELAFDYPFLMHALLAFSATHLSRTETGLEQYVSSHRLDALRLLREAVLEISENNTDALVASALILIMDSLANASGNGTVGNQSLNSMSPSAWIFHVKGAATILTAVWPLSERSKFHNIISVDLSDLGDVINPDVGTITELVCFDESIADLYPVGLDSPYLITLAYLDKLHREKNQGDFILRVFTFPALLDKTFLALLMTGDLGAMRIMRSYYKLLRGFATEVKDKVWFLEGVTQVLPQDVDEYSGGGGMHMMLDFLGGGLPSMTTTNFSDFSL
How it was run: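 The E-score, a modified Wilcoxon-Mann-Whitney statistic, was computed by the Universal PBM Analysis Suite for every ungapped eight-base word pooled with its reverse complement. Scans behind it were normalised with masliner after bound GST-tagged yeast transcription factors were detected with fluorescent anti-GST. The proteins, at about 100-200 nM, had been applied to universal all-10-mer Agilent arrays made double-stranded by primer extension.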

| Sequence | PBM E-score |
| --- | --- |
| AAAGCTTA | -0.0429 |
| ACAACCAA | -0.118 |
| GAGCATAC | 0.13 |
| CGAATTCC | 0.17 |
| AGTCCCAC | -0.208 |
| GATTCCCA | -0.0776 |
| AAGCGTTC | -0.0577 |
| AGCATCCT | -0.132 |
| AGACATCT | 0.12 |
| GGTGTAGA | -0.0982 |
| AGCACCGG | -0.202 |
| AATAAAAT | -0.0336 |
| ATCTCCAC | -0.126 |
| GCCTGGCA | -0.27 |
| ACTCGTTA | 0.35 |
| AGACAACA | 0.0149 |
| TCTCTCAA | -0.0834 |
| GGAGCGTA | 0.201 |
| ACAAATAT | 0.0565 |
| AAACTAAC | 0.179 |
| ATTAGTCC | -0.066 |
| AAGACACC | -0.00077 |

| Sequence | PBM E-score |
| --- | --- |
| GATGCGCA | -0.172 |
| GGCGGTAC | 0.122 |
| ATGTGTGG | -0.215 |
| TCAGCGCA | -0.178 |
| ACATATTA | 0.0239 |
| CTGGTAAG | -0.0253 |
| AGGTTTGA | -0.118 |
| AAGAGGAA | -0.13 |
| ATGTATCA | 0.0504 |
| GAGTAATC | -0.108 |
| AAAATGTT | 0.0781 |
| GTAAATCA | 0.168 |
| GCTGGACC | -0.0565 |
| AGAATCAG | -0.0805 |
| AGTGCTCC | -0.0323 |
| AACCGATT | 0.155 |
| CGAACCAC | 0.122 |
| AAGTACGA | 0.407 |
| GGGACGGA | -0.259 |
| CAGGCATA | -0.0275 |
| GATAGCAC | -0.0286 |
| CGGAACAG | 0.0687 |

| Sequence | PBM E-score |
| --- | --- |
| GAAGCCGC | -0.0707 |
| TCCCACCA | -0.0746 |
| GACTGCTC | -0.0984 |
| GACCGTGC | -0.197 |
| GTGAGCGA | 0.179 |
| AGGCTGAA | -0.282 |
| CCGTCTCC | -0.0968 |
| CAGGAGCG | 0.00502 |
| AAGGGTGA | -0.0338 |
| ACTCGTAT | 0.483 |
| AGAGACCC | -0.223 |
| CACACTAA | 0.0735 |
| ATTTAGCG | 0.0823 |
| ACCACAAC | 0.0838 |
| ACTGCATA | -0.148 |
| CCGCCCAG | -0.0999 |
| GACTGCTA | -0.202 |
| CTGGGCTC | -0.0826 |
| ACTTAACT | -0.0538 |
| CAATGGAC | 0.00441 |
| CTCGGGCC | -0.148 |
| CCCAGACC | -0.181 |

| Sequence | PBM E-score |
| --- | --- |
| CGAGTCCA | -0.0394 |
| GAGCGAAA | 0.16 |
| ACTGCAAC | -0.0949 |
| GCCTAGCA | -0.21 |
| CATCTAAA | 0.0138 |
| AAATGCCT | -0.138 |
| GACATGTA | -0.0795 |
| GGGGCAAA | -0.173 |
| GCCGAAGA | 0.139 |
| CCGGTCAG | -0.179 |
| ATCCGGTC | 0.0273 |
| GTCCATAA | -0.261 |
| AATATCCT | -0.0643 |
| ATTAGGTA | 0.0734 |
| GCGCCGCA | -0.12 |
| GCGCATAA | 0.0729 |
| ATCTTACC | 0.00572 |
| GCATAGGA | -0.0298 |
| ATCTCCCA | -0.0924 |
| ACTAGGTG | -0.327 |
